# Test results published in PubChem BioAssay AID1508624 (National Center for Advancing Translational Sciences (NCATS), 2021).
# Values joined by “and” are separate entries in the source; they are usually repeats but may differ in a detail not shown here. Identical values can stand only once. Out of some 48,000 compounds screened, about 120 (0.25%) were called active. Inconclusive results (about 4%) are left out. Calls follow the shape of the dose curve; as a rule, active = well fitted activation curve with a large enough effect; inconclusive = small, poorly fitted or top-dose-only effect, or another doubt; inactive = no such curve, though single readings can be large or run the other way. This is one part of the list.
# Experiment: Primary qHTS for Identification of Small Molecule Activators of Huntingtin-Antisense Promoter Activity; also: nearly all actives have a fitted effect of over 55% in size
# Settings: HEK293 HTT-AS promoter firefly luciferase reporter, 24 h
# Procedure, shortened: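 Firefly luciferase readout (Dual-Glo, 10 min RT) after 24 h, 37 °C compound exposure (final up to 57.5 uM) of HEK293 reporter cells cultured 24 h beforehand; PTC124 at 50 uM final as control inhibitor; activity scaled vehicle 0%, zero RLU -100%.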
# [1] = at 57.5 µM (top of the series) unless noted
structure (smiles),measurement,setting,value
C[C@@H]1CN(C2CCC(C#N)(c3ccc(F)cc3)CC2)CC[C@]1(C(=O)O)c1ccccc1 (some centres undefined),"activity change, positive = activation",[1],inactive: -3.08%
C=C[C@@H]1CN2CCC1C[C@H]2[C@H](O)c1ccnc2ccccc12 (some centres undefined),"activity change, positive = activation",[1],inactive: -20.5%
O=C(CCCN1CCC(n2c(=O)[nH]c3ccccc32)CC1)c1ccc(F)cc1,"activity change, positive = activation",[1],inactive: -18.5%
C[C@]12CC[C@H]3[C@@H](CCC4=CC(=O)CC[C@@H]43)[C@@H]1CC[C@@H]2OC(=O)CCC1CCCCC1,"activity change, positive = activation",[1],inactive: -5.4%
CCC1(CC)C(=O)NC(=O)NC1=O,"activity change, positive = activation",[1],inactive: -8.8%
O=C(Nc1cc(C(F)(F)F)cc(C(F)(F)F)c1)c1cccn(Cc2ccccc2Cl)c1=O,"activity change, positive = activation",[1],"inactive: -24% [at 57.5 µM, percent change from vehicle, -100% = no light]"
C[C@]12CCC(=O)C(O)=C1CC[C@@H]1[C@H]3CCC(=O)[C@@]3(C)CC[C@@H]12,"activity change, positive = activation",[1],inactive: -12.8%
CCCC[N+]1(C)[C@H]2CC(OC(=O)[C@H](CO)c3ccccc3)C[C@H]1[C@H]1O[C@H]12 (some centres undefined),"activity change, positive = activation",[1],inactive: -6.1%
CCc1cc2c(s1)-n1c(C)nnc1CN=C2c1ccccc1Cl,"activity change, positive = activation",[1],inactive: -1.33%
CC(C)(C)c1ccc(C(=O)Nc2ccc(Cl)cc2C(=O)c2ccccc2)cc1,"activity change, positive = activation",[1],inactive: -21.9%
CC(C(O)c1ccccc1)N(C)C/C=C/c1ccccc1 (centres undefined),"activity change, positive = activation",[1],inactive: -12.4%
Clc1ccc(C(c2ccc(Cl)cc2)C(Cl)(Cl)Cl)cc1,"activity change, positive = activation",[1],inactive: -3.7%
COc1cc(N)c(Cl)cc1C(=O)NC1CN2CCC1CC2 (centres undefined),"activity change, positive = activation",[1],inactive: -6.3%
Cc1ccc(NC(=O)c2cccn(Cc3ccccc3C)c2=O)c(C)c1,"activity change, positive = activation",[1],inactive: -19.9%
COc1cc(OC)c(OC)cc1C=O,"activity change, positive = activation",at 57.5 µM (top of the series),inactive: -5.86%
same,"activity change, positive = activation",at 116 µM (top of the series),inactive: -7.96%
NN=C(N)N,"activity change, positive = activation",[1],inactive: -1.48%
Fc1cc(Br)ccc1CBr,"activity change, positive = activation",[1],inactive: -1.01%
CC(O)=C(C#N)C(=O)Nc1cc(Br)ccc1Br,"activity change, positive = activation",[1],inactive: 8.84%
CC(C)c1nn2c(=O)cc(COC(=O)Cc3ccccc3)nc2s1,"activity change, positive = activation",[1],inactive: 4.91%
N=c1c2c(-c3ccccc3)c(-c3ccccc3)n(Cc3ccccc3)c2ncn1C1CCC(O)CC1 (centres undefined),"activity change, positive = activation",[1],inactive: -23.1%
NC(=O)OCCCc1ccccc1,"activity change, positive = activation",[1],inactive: 2.91%
Nc1c(Cl)c(Cl)c(Cl)c(Cl)c1Cl,"activity change, positive = activation",[1],inactive: 2.41% [at 116 µM]
O=C1CN=C(c2ccccc2Cl)c2cc(Cl)ccc2N1Cc1cccc(Cl)c1,"activity change, positive = activation",[1],inactive: -42%
C[C@]12CCC(=O)C=C1CC[C@@H]1[C@@H]2CC[C@]2(C)C(=O)CC[C@@H]12,"activity change, positive = activation",[1],inactive: -15.3%
CC(=Cc1csc(C)n1)[C@@H]1C[C@H]2O[C@]2(C)CCC[C@H](C)[C@@H](O)[C@@H](C)C(=O)C(C)(C)[C@@H](O)CC(=O)O1,"activity change, positive = activation",[1],inactive: -29.6%
OC(c1ccccc1)(c1ccccc1)C1CCNCC1,"activity change, positive = activation",[1],inactive: -6.05%
COc1cccc(-n2c(/C=C/c3ccccc3O)nc3ccccc3c2=O)c1,"activity change, positive = activation",[1],inactive: -42.7%
Nc1c(C(=O)Nc2ccc(Cl)c(C(F)(F)F)c2)sc2nc3c(cc12)N1CCC3CC1,"activity change, positive = activation",[1],inactive: -72.3%
CC(O)CN1CCN(CC(=O)[O-])CCN(CC(=O)[O-])CCN(CC(=O)[O-])CC1.[Gd+3] (centres undefined),"activity change, positive = activation",[1],inactive: -2.56%
COc1ccc(-n2c(/C=C\c3ccccc3F)nc3ccccc3c2=O)cc1OC,"activity change, positive = activation",[1],inactive: -27.7%
CN1C2CCC(C)(C)C1CC(OC(=O)C(O)(c1cccs1)c1cccs1)C2 (centres undefined),"activity change, positive = activation",[1],inactive: -9.39%
O=C(N[C@H]1N=C(c2ccccc2F)c2cccc3c2N(CC3)C1=O)c1cc2ccccc2[nH]1,"activity change, positive = activation",[1],inactive: -10.6%
O=C(CBr)Nc1ccc(Cl)cc1C(=O)c1ccccc1F,"activity change, positive = activation",[1],inactive: -11.7%
CCCCC/C=C\C/C=C\C/C=C\C/C=C\CCCC(=O)NCC(=O)O,"activity change, positive = activation",[1],inactive: -1.88%
Cc1ccccc1-n1nc(C)c2c1NC(=O)CSC2c1ccc(N(C)C)cc1 (centres undefined),"activity change, positive = activation",[1],"inactive: -18.8% [at 57.5 µM, percent change from vehicle, -100% = no light]"
CCCCCc1nc2ccccc2c(=O)n1-c1ccc(C)cc1,"activity change, positive = activation",[1],inactive: -11.7%
CCCC1CCCCN1 (centres undefined),"activity change, positive = activation",[1],inactive: -5.54%
Cc1ccc(NC(=O)CN2C(=O)CN=C(c3ccccc3)c3ccccc32)cc1,"activity change, positive = activation",[1],inactive: -9.28%
CCCC(C)(COC(N)=O)COC(=O)NC(C)C (centres undefined),"activity change, positive = activation",[1],inactive: -4.88% and inactive: -4.33%
CCN(Cc1ccc(Cl)nc1)/C(=C/[N+](=O)[O-])NC,"activity change, positive = activation",[1],inactive: 2.07%
Cc1ccccc1-n1c(Cn2ncc3c(N)ncnc32)nc2cccc(C)c2c1=O,"activity change, positive = activation",[1],inactive: -25%
Cc1ccc(CN2C(=O)c3ccccc3Sc3ccc(C(=O)N4CCC5(CC4)OCCO5)cc32)cc1,"activity change, positive = activation",[1],inactive: -46.2%
CN1CC[C@]23c4c5ccc(O)c4O[C@H]2[C@@H](O)CC[C@H]3[C@H]1C5,"activity change, positive = activation",[1],inactive: -5.74% [at 116 µM]
